This is an account of results in the RNAGym collection of RNA variant scans (doi:10.7554/elife.90254).

The labels stand for the following.
B1: OR4K15 (parent)
chain: GUUAACGGUCAUAGGCCAUGGAAACUAGGAGCACCAUUUCGCUGCCAGUGAAGAAAUGAACAAAGAAAAUCUGGGCCAGGCAGGCAUCAAAAGAAAUAGUCUUGCGCUCAACCAGAAAGUCUGUAAUCAUUUUAAGGGUA

The source gives no read counts; variants with many changes may rest on few reads.

The variants in the series derive from B1. Description: self-cleavage, relative activity (ratio to wild type); higher = more cleavage; in vitro, sequencing; the parent is a self-cleaving ribozyme.
Regarding A56G A78G U87C, the self-cleavage was determined as 0.18.
For the variant A56G A89G A94G, the self-cleavage amounted to 0.92.
As to A55G G65U A110G, the self-cleavage was 0.09.
With A56G C61U A111G the figure was 0.04.
With A56G A90G U108C the figure was 0.01.
With A59G A94G A129G the figure was 0.48; with U57C A94G U97C U100C, 2.12.
Take U57C A86C G93U A98U A117G U130C U131C: the self-cleavage came to 0.25.
With A56G A89G U133C the figure was 0.45; with G58U A91G U127C, 0.76.
With A56G A60G A67G the figure was 1.21; with A56G C105G A116U, 0.01; with A55G U103C A126G, 0.3.
With A56G A63G U122C the figure was 0.85; with A59G A66G A117G, 1.74; with A55G A110G U132C, 0.1.
As to U57C A89U U122C, the self-cleavage was 1.18.
In the case of A59G A68G A95G U122A, the self-cleavage was 2.37.
With A59G A98G U100G A135G the figure was 0.93.
With A56U G115A U120A U122A the figure was 0.06.
Turning to A59G A78G A111G, the self-cleavage was 0.07.
With A56G U57A A59G U102G A117G U132C the figure was 0.27; with A59G G104U U120C A135G, 0.01; with U57C U70C U131C, 0.43.
With A56G A66G G106A the figure was 0.01; with A59G A68G A82U, 0.21; with U57C U103C U122A, 0.82.
With A56G U100C U127C the figure was 2.25; with A56G A63G A118G A126G, 1.3.
In the case of A56G U57C A63G, the self-cleavage was 0.46.
With U57A A59C A66G A78C A82G A92G the figure was 0.33; with U57C A90G A111U A116U, 0.
With A56U A68G A111U A126G the figure was 0; with A59G U100C A111G U122A, 0; with A60G A62G G123U, 1.07.
With U57C A62G A68G the figure was 0.96; with A56G A116U A117U U122C, 0.05; with A59C A68G U103A, 0.53.
With A59G A68G G80A A86U, the self-cleavage is 0.42.
With A59G U100A C128A the figure was 0.48; with A55G A68G G123A, 1.18; with A55G U87C G136U, 1.72.
With A55G A94G A95U the figure was 1.92; with A59C A64G U72C A118G U130C, 0.02.
With A55G U102C A111G C113U the figure was 0.01; with A59G A69G U122C, 0.39; with U57A A129G U130C, 1.33.
With A59G A82G U108C, the self-cleavage came to 0.01.
With A56U G79A A92G U102C the figure was 0.1; with A56G A91C A135G, 1.52.
With A59G A62G A114G the figure was 0.23; with A60G A62G A69G, 1.22.
With A56G A59U A111G the figure was 0.02; with A56G A63G A114G U131C, 0.62; with A59U A117U A126G, 0.77.
In the case of A59U A82G A89U, the self-cleavage is 0.33.
With A56G A62G U102C U103A the figure was 0.19; with A56G U57A A91G A98G, 0.29; with U57A A90G U132C, 0.95.
With A59G A68G A140G the figure was 1.23; with A59G A91G U120C, 0.56; with A56G G79A A114G U122C, 0.03.
On to A55G U103A A140U, for which the self-cleavage stood at 0.62.
On to A59U A62G G99A, for which the self-cleavage turned out to be 0.56.
With A59G A82G A90G A111G U139A the figure was 0.02.
With A59G U122C A140U the figure was 1.5; with U57A A110U A117G, 1.09.
With U57C U97C G136A the figure was 0.85.
As to U57C A94G A117U, the self-cleavage amounted to 0.76.
With A59G A90U U102C A116G the figure was 0.93; with U57A A78G G84A, 0.19.
With A56G A62G U103C the figure was 1.11; with U57G A69G A86G U87C U133C, 0.47.
With U57C A60G A67G the figure was 1.01.
Turning to A59G A82G G83A, the self-cleavage stood at 0.26.
With A55G U120C G136A the figure was 2.2; with A59G A68G A92U, 1.7.
Turning to U57A G65A A92G, the self-cleavage stood at 1.04.
With A59C U97C U102A the figure was 0.62; with A59G U108C U127C, 0.01.
With A59G C81U A118G A135U the figure was 0.11.
With A56G G93A A96G C113U the figure was 0.1.
Consider U57C A67G U127A, for which the self-cleavage stood at 0.57.
With A56G A59G A69G U130C U131C the figure was 0.87.
With A56G G80A U100C the figure was 0.38; with A55G A68G A86U U87A A92G, 1.66; with A59U A82U A111G A125G, 0.
With A55U A96G A126G the figure was 0.72.
In the case of U57A U70C U100G, the self-cleavage turned out to be 0.41.
With A56G A68G A111G A125U the figure was 0.02; with A56G A78U U108C, 0.01; with A56G A116G U132C, 0.33.
With U57C A94G U120C the figure was 0.45; with A55G A89G A95G A111G, 0; with A59G A82G A126G, 0.22.
With U57C A62U A95U U122C the figure was 1.34; with A59G U124A A140G, 0.53.
As to A56C A67G U70A A126U U139C, the self-cleavage worked out at 0.42.
With A59G A67G A98U the figure was 1.36.
With A59G A63G A92G U139C the figure was 1.74; with U57C A62G U102C, 2.65.
With A59G G84U A90G the figure was 0.53; with A59G A78G U100C, 0.24; with A55G U87C A118G A126G, 0.81.
Turning to A56G A69G A110G U133C, the self-cleavage was 0.09.
As for A56G A66G A69G, the self-cleavage is 0.97.
With A56G A62G A64G A82G U127C the figure was 0.06; with A55G A78G G79U U103C U133C, 0.05.
A55G A69G U72C: the self-cleavage was 0.07.
Regarding U57G A62G U108C, the self-cleavage was found to be 0.02.
In the case of U57C A68G A82U U122C, the self-cleavage stood at 0.12.
With G58U U102C A116G the figure was 0.93; with A56G C81U U102C, 0.61; with A59G U102C C112A A118G, 0.01.
With A59G A66U U122C the figure was 1.46; with A55G A89G U103C, 0.19.
With A55G A82G A118U A140U the figure was 0.12; with A55G U133C U139C, 1.83.
With U57C U108C U122A, the self-cleavage stood at 0.
With A56G U57C A63G A126G A129G the figure was 0.51; with A59G U132C A140G, 1.31; with A59U A98G A118G, 0.16.
With A56G A86G A117G the figure was 1.57.
With A59G A62U A66U A78U the figure was 0.24.
Take A59U A60G A134G: the self-cleavage came to 1.3.
With U57G A68U A111U the figure was 0.08; with U57C A95G U124C, 1.5; with A56G A90G A92G, 1.53.
As to A55G A78G U127C, the self-cleavage amounted to 0.12.
On to A56G A78C A91G A129G U130C, for which the self-cleavage worked out at 0.04.
With A56C A111G U127C the figure was 0; with A56G A64G U108C A110G, 0; with A56G A67G U72C U131C, 0.13.
For the variant A60G A63C C77U A92G, the self-cleavage is 2.06.
With A55U A68G A95G the figure was 1.78; with A59G U131C U132C, 0.12.
With A59U A110G A117G the figure was 0.16.
With A59G A114U A126C the figure was 0.01.
For the variant A59U A68G U102G A116U, the self-cleavage turned out to be 0.1.
A56G A64G A66G U122C: the self-cleavage came out at 0.76.
With A56G A90G A126G the figure was 1.63.
With A55G U72A A92U the figure was 0.21.
With A59G A67U U100C the figure was 1.99; with A55U A60U U87A U132C, 2.27.
U57C A60G A117G A125G: the self-cleavage turned out to be 0.19.
With A56G A59G A140U the figure was 1.09; with A55U U57C A89C U132C, 0.72.
Turning to A59G A63C A118C, the self-cleavage worked out at 0.94.
With A60C A95G U132C the figure was 2.49; with A55G A118G A135U, 0.44; with U57A U108C A118G A129G, 0.
With A56G U103C U122C the figure was 0.92; with A56U G93A A116G A117G, 0.73.
For the variant A55U A59G A117G A129U, the self-cleavage was 0.
For A55G A68G A89G A114G, the self-cleavage was determined as 0.63.
As for A55G A95G U102C, the self-cleavage was 2.07.
With U57C U87C A140G the figure was 1.6.
With A55G A68U U139C A140G the figure was 1.62; with A59C U122C A134G, 1.03.
With A56G A60C A110U A118G the figure was 1.39; with A59U A63G A67G, 1.23.
Regarding U57C U72A A126G, the self-cleavage is 0.15.
Regarding A55G A86G A92U A95G, the self-cleavage was found to be 1.67.
With A59G A64G A129G the figure was 0.77; with A59U A67G U100C U122C, 2.57; with A55G A95G A110G, 0.18.
In the case of U57C A66U U108C, the self-cleavage came to 0.
